Data: publication PMC12089419
These are yes or no findings as the source states them, for the method shown. In cells and extracts the contact can be indirect. Some results given as binding are weak or reduced against the parent protein; the word gives no strength.

The chains behind the UniProt entries cited, without tags or fusion partners.
UniProt Q93009: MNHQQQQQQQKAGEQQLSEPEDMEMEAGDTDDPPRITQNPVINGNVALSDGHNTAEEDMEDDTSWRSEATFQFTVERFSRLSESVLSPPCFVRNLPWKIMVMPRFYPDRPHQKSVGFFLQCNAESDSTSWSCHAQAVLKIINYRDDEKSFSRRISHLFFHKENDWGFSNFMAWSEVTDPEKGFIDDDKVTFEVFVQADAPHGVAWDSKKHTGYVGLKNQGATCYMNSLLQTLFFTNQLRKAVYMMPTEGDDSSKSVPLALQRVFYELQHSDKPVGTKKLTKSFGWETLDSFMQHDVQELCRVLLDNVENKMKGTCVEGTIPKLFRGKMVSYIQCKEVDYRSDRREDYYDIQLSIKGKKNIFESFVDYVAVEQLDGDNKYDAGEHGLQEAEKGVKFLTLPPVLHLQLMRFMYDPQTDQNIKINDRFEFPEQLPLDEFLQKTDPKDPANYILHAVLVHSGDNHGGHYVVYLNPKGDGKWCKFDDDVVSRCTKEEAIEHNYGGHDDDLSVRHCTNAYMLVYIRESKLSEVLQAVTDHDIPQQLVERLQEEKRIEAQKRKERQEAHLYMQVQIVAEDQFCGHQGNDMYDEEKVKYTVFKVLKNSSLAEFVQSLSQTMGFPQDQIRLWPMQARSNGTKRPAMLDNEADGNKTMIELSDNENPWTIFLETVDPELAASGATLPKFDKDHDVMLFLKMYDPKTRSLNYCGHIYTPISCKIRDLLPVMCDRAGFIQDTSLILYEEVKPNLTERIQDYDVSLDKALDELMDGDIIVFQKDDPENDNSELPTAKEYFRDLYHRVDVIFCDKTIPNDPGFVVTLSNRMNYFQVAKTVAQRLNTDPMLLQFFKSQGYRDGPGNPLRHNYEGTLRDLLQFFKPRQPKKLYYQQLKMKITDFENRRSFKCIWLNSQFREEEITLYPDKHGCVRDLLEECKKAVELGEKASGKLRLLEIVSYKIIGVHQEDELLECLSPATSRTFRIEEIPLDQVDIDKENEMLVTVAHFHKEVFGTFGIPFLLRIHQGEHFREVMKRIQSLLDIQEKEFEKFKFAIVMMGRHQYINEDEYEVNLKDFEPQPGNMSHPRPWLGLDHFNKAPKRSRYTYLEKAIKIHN
UniProt Q92830: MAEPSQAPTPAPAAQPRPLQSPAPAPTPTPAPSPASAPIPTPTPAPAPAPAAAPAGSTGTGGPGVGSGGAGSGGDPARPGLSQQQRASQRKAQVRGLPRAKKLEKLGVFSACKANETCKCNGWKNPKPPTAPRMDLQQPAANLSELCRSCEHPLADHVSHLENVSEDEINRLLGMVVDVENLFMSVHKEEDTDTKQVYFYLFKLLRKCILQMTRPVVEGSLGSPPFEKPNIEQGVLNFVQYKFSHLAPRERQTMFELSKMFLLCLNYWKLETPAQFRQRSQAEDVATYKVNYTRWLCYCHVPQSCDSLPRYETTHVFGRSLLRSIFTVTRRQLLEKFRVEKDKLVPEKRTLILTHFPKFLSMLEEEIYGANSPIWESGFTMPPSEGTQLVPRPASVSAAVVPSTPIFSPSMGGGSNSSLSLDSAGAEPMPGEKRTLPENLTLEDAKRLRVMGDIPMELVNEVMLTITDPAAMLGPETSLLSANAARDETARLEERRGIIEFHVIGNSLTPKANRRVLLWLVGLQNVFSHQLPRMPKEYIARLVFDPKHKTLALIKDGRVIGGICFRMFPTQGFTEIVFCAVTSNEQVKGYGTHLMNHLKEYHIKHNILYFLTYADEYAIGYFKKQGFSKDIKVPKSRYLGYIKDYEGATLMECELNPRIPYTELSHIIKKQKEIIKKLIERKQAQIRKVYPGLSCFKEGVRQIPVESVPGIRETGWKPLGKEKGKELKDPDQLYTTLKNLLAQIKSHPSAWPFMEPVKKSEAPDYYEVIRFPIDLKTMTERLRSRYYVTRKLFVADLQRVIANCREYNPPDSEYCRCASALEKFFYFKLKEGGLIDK

Tests used:
[1] = target: T1, endogenous DACH1 (human (endogenous in RKO, HCT8, SW480)) (UniProt Q9UI36); test: co-IP; endogenous proteins; RKO, HCT8 and SW480 cells immunoprecipitated with anti-DACH1 or anti-USP7
T1 sequence: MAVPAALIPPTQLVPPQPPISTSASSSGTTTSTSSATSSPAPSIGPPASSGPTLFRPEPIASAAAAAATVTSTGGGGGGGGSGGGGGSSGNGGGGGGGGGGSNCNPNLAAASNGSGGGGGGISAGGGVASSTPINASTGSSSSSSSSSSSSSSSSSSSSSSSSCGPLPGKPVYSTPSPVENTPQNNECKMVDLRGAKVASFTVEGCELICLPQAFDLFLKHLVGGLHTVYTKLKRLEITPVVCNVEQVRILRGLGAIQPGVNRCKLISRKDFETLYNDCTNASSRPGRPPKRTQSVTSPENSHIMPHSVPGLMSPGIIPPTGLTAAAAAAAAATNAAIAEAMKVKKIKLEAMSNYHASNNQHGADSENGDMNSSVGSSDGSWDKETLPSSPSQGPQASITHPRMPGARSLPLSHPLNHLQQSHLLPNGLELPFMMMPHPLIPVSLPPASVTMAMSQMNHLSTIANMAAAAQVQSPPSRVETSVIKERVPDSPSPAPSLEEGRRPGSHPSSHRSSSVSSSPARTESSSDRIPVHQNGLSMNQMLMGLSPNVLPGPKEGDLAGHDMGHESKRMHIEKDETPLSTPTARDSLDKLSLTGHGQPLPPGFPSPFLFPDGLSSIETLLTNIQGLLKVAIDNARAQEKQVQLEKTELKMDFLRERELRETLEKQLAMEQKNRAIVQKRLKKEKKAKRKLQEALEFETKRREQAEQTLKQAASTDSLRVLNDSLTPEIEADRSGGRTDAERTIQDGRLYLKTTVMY

[2] = target: T1, endogenous DACH1 (human (endogenous in RKO, HCT8, SW480)); test: co-IP; endogenous proteins; HCT8, RKO and SW480 cells immunoprecipitated with anti-DACH1 or anti-GCN5

Substance	binding [1]	binding [2]
endogenous USP7 (from UniProt Q93009 1-1102) (enzyme)	binds	
endogenous GCN5 (from UniProt Q92830 1-837) (enzyme)		binds
